Experimental data published in article PMC5739690.
No constants are given. Whether binding was seen depends on the method and setting. In cells and extracts the contact can be indirect. Some results given as binding are weak or reduced against the parent protein; the word gives no strength. Where a sequence is shown, tags or fusion partners need not be part of it.

The chains behind the UniProt entries cited, without tags or fusion partners.
UniProt P35568: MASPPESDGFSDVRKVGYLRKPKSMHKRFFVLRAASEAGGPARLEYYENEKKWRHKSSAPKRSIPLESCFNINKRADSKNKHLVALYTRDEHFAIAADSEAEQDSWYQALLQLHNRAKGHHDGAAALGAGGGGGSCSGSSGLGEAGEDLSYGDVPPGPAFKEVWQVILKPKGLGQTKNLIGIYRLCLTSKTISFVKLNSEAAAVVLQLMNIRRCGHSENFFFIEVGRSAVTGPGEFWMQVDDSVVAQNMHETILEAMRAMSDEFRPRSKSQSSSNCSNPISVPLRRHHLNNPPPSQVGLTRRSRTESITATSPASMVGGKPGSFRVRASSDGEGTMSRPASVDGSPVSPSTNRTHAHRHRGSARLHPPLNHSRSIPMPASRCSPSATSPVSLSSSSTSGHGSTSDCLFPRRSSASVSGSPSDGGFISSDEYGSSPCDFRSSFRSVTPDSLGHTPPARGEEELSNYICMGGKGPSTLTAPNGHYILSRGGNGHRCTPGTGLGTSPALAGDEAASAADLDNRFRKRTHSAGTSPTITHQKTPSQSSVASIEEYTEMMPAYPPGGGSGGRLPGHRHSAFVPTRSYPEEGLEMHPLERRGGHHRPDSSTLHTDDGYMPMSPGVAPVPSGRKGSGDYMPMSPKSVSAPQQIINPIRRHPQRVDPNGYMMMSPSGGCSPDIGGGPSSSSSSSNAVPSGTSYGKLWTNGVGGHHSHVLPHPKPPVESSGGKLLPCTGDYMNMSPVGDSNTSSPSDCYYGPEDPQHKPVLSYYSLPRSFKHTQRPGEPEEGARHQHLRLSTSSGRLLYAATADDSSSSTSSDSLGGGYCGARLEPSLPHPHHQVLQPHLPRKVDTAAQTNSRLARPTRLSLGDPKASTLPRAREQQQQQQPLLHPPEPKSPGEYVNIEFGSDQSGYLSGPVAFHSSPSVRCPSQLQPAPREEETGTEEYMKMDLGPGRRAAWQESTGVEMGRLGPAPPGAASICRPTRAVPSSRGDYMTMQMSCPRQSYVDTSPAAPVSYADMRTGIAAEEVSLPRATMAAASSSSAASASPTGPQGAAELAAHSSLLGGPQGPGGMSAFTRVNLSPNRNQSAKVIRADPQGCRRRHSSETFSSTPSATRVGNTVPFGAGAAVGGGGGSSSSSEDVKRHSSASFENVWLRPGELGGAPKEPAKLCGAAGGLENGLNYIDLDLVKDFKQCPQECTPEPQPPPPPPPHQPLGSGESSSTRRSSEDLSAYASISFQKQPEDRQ

T1: Flag-tagged USP18 (ubiquitin-specific protease 18), full length (human) (UniProt Q9UMW8)
T1 sequence: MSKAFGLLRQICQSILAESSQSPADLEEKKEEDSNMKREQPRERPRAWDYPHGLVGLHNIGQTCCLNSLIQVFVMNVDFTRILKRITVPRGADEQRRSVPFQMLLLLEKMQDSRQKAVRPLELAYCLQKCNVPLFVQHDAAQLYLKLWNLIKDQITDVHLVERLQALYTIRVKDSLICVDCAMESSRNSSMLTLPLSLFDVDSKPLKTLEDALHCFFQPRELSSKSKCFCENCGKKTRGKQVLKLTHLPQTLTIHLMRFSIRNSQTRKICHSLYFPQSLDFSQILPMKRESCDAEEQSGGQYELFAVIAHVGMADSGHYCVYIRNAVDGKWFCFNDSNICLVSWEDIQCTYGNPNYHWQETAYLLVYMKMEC


Legend:
[1] = biological target: T1, Flag-tagged USP18 (ubiquitin-specific protease 18), full length (human); experiment: co-IP; cells transfected with the Flag-tagged bait only (293T for Figures 1C and 1D; cell line not named for Figures 2C, 2E, 2F, 3C); anti-Flag M2 affinity gel; immunoblot for the endogenous partner
[2] = biological target: T1, Flag-tagged USP18 (ubiquitin-specific protease 18), full length (human); experiment: co-IP; 293T cells co-transfected with both tagged partners; RIPA lysate on anti-Flag M2 affinity gel; immunoblot with anti-Myc or anti-GFP and anti-Flag

Molecule | binding [1] | binding [2]
endogenous IRS1 (from UniProt P35568 1-1242) | no binding | –
YFP-tagged IRS4 (1-334) (domain or fragment, UniProt O14654 1-334) MASCSFTRDQATRRLRGAAAAAAAALAAVVTTPLLSSGTPTALIGTGSSCPGAMWLSTATGSRSDSESEEEDLPVGEEVCKRGYLRKQKHGHRRYFVLKLETADAPARLEYYENARKFRHSVRAAAAAAAAAASGAAIPPLIPPRRVITLYQCFSVSQRADARYRHLIALFTQDEYFAMVAENESEQESWYLLLSRLILESKRRRCGTLGAQPDGEPAALAAAAAAEPPFYKDVWQVIVKPRGLGHRKELSGVFRLCLTDEEVVFVRLNTEVASVVVQLLSIRRCGHSEQYFFLEVGRSTVIGPGELWMQVDDCVVAQNMHELFLEKMRALCAD | – | no binding
YFP-tagged IRS4 (401-1257) (domain or fragment, UniProt O14654 401-1257) TPSEPVAHSRRGRLHLPRGRRSRRAVSVPASFFRRLAPSPARPRHPAEAPNNGARLSSEVSGSGSGNFGEEGNPQGKEDQEGSGGDYMPMNNWGSGNGRGSGGGQGSNGQGSSSHSSGGNQCSGEGQGSRGGQGSNGQGSGGNQCSRDGQGTAGGHGSGGGQRPGGGHGSGGGQGPGDGHGSGGGKNSGGGKGSGSGKGSDGDGERGKSLKKRSYFGKLTQSKQQQMPPPPPPPPPPPPAGGTGGKGKSGGRFRLYFCVDRGATKECKEAKEVKDAEIPEGAARGPHRARAFDEDEDDPYVPMRPGVATPLVSSSDYMPMAPQNVSASKKRHSRSPFEDSRGYMMMFPRVSPPPAPSPPKAPDTNKEDDSKDNDSESDYMFMAPGAGAIPKNPRNPQGGSSSKSWSSYFSLPNPFRSSPLGQNDNSEYVPMLPGKFLGRGLDKEVSYNWDPKDAASKPSGEGSFSKPGDGGSPSKPSDHEPPKNKAKRPNRLSFITKGYKIKPKPQKPTHEQREADSSSDYVNMDFTKRESNTPAPSTQGLPDSWGIIAEPRQSAFSNYVNVEFGVPFPNPANDLSDLLRAIPRANPLSLDSARWPLPPLPLSATGSNAIEEEGDYIEVIFNSAMTPAMALADSAIRYDAETGRIYVVDPFSECCMDISLSPSRCSEPPPVARLLQEEEQERRRPQSRSQSFFAAARAAVSAFPTDSLERDLSPSSAPAVASAAEPTLALSQVVAAASALAAAPGIGAAAAAAGFDSASARWFQPVANAADAEAVRGAQDVAGGSNPGAHNPSANLARGDNQAGGAAAAAAAPEPPPRSRRVPRPPEREDSDNDDDTHVRMDFARRDNQFDSPKRGR | – | binds

More lines, now with the values ahead:

binding [1] | binding [2] | Molecule
– | binds | Myc-tagged IRS4 (1-400) (domain or fragment, UniProt O14654 1-400) MASCSFTRDQATRRLRGAAAAAAAALAAVVTTPLLSSGTPTALIGTGSSCPGAMWLSTATGSRSDSESEEEDLPVGEEVCKRGYLRKQKHGHRRYFVLKLETADAPARLEYYENARKFRHSVRAAAAAAAAAASGAAIPPLIPPRRVITLYQCFSVSQRADARYRHLIALFTQDEYFAMVAENESEQESWYLLLSRLILESKRRRCGTLGAQPDGEPAALAAAAAAEPPFYKDVWQVIVKPRGLGHRKELSGVFRLCLTDEEVVFVRLNTEVASVVVQLLSIRRCGHSEQYFFLEVGRSTVIGPGELWMQVDDCVVAQNMHELFLEKMRALCADEYRARCRSYSISIGAHLLTLLSARRHLGLVPLEPGGWLRRSRFEQFCHLRAIGDGEDEMLFTRRFV
no binding | – | endogenous IRS2 (protein, UniProt Q9Y4H2 1-1338) MASPPRHGPPGPASGDGPNLNNNNNNNNHSVRKCGYLRKQKHGHKRFFVLRGPGAGGDEATAGGGSAPQPPRLEYYESEKKWRSKAGAPKRVIALDCCLNINKRADAKHKYLIALYTKDEYFAVAAENEQEQEGWYRALTDLVSEGRAAAGDAPPAAAPAASCSASLPGALGGSAGAAGAEDSYGLVAPATAAYREVWQVNLKPKGLGQSKNLTGVYRLCLSARTIGFVKLNCEQPSVTLQLMNIRRCGHSDSFFFIEVGRSAVTGPGELWMQADDSVVAQNIHETILEAMKALKELFEFRPRSKSQSSGSSATHPISVPGARRHHHLVNLPPSQTGLVRRSRTDSLAATPPAAKCSSCRVRTASEGDGGAAAGAAAAGARPVSVAGSPLSPGPVRAPLSRSHTLSGGCGGRGSKVALLPAGGALQHSRSMSMPVAHSPPAATSPGSLSSSSGHGSGSYPPPPGPHPPLPHPLHHGPGQRPSSGSASASGSPSDPGFMSLDEYGSSPGDLRAFCSHRSNTPESIAETPPARDGGGGGEFYGYMTMDRPLSHCGRSYRRVSGDAAQDLDRGLRKRTYSLTTPARQRPVPQPSSASLDEYTLMRATFSGSAGRLCPSCPASSPKVAYHPYPEDYGDIEIGSHRSSSSNLGADDGYMPMTPGAALAGSGSGSCRSDDYMPMSPASVSAPKQILQPRAAAAAAAAVPSAGPAGPAPTSAAGRTFPASGGGYKASSPAESSPEDSGYMRMWCGSKLSMEHADGKLLPNGDYLNVSPSDAVTTGTPPDFFSAALHPGGEPLRGVPGCCYSSLPRSYKAPYTCGGDSDQYVLMSSPVGRILEEERLEPQATPGPSQAASAFGAGPTQPPHPVVPSPVRPSGGRPEGFLGQRGRAVRPTRLSLEGLPSLPSMHEYPLPPEPKSPGEYINIDFGEPGARLSPPAPPLLASAASSSSLLSASSPASSLGSGTPGTSSDSRQRSPLSDYMNLDFSSPKSPKPGAPSGHPVGSLDGLLSPEASSPYPPLPPRPSASPSSSLQPPPPPPAPGELYRLPPASAVATAQGPGAASSLSSDTGDNGDYTEMAFGVAATPPQPIAAPPKPEAARVASPTSGVKRLSLMEQVSGVEAFLQASQPPDPHRGAKVIRADPQGGRRRHSSETFSSTTTVTPVSPSFAHNPKRHNSASVENVSLRKSSEGGVGVGPGGGDEPPTSPRQLQPAPPLAPQGRPWTPGQPGGLVGCPGSGGSPMRRETSAGFQNGLNYIAIDVREEPGLPPQPQPPPPPLPQPGDKSSWGRTRSLGGLISAVGVGSTGGGCGGPGPGALPPANTYASIDFLSHHLKEATIVKE
